Measurements from PubChem BioAssay AID1919008 (Molecular Pharmacology Branch, DTP, NCI, 2023).
Not every entry of the source has a single result; some have several. Only these are listed. An entry can have further records. The values listed for one entry are repeats (runs, samples, wells, individuals or studies). Marks such as (2×) say how often a value occurs here.

Tested on: DMS-114 complex spheroids with HUVEC/MSC, growth % test/control
Experiment: Anticancer human tumor DMS-114 cell line growth inhibition [AhR];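 also: spheroids exposed to agents for 7 days before readout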
Details: for viability, T/C: stronger effect = lower value; for IC50: compound alone
From the text: Multicellular complex tumor spheroid response to aryl hydrocarbon receptor antagonists in combination with a variety of drugs and investigational agents in selected tumor cell lines
The current study was undertaken to assess response to aryl hydrocarbon receptor antagonists in combination with standard-of-care drugs and investigational agents in solid tumor complex spheroid models. Complex spheroids include a stromal component modeled by human endothelial cells (HUVEC) and fibroblasts modeled by human mesenchymal stem cells (MSCs). The concentration ranges selected for each drug and investigational agent were based upon clinically achievable concentrations if the clinical Cmax of the agent was known.
Compounds. The drugs and investigational agents: BAY 2416964 (NSC825713), GNF351 (NSC835774), CH-223191 (NSC835775), CPI-455 (NSC825282), aza-TdCyd (NSC777586), decitabine (NSC127716), belinostat (NSC758774), entinostat (NSC756642), pevonedistat (NSC761192), tazemetostat (NSC777109), talazoparib (NSC765396), olaparib (NSC753686), selinexor (NSC780203), nedisertib (M3814, NSC802822), bortezomib (NSC756655), venetoclax (NSC766270), doxorubicin (NSC123127), elimusertib (BAY189344, NSC800525), ceralasertib (AZD6738, NSC777638), TAK-243 (NSC785004), alisertib (NSC759677), etoposide (NSC141540), topotecan (NSC609699), eribulin (NSC707389), gemcitabine (NSC613327), carboplatin (NSC241240), cisplatin (NSC119875), and SN-38 (NSC673596) were obtained from the National Cancer Institute (NCI) Developmental Therapeutics Program Chemical Repository (32). The FDA-approved anticancer drug set is available from the Developmental Therapeutics Program at https://dtp.cancer.gov/organization/dscb/obtaining/available plates.htm. […] The stock solutions were prepared in dimethyl sulfoxide (DMSO, Sigma-Aldrich, St. Louis, MO, cat. D2650), except for the platinum compounds which were prepared in saline (Quality Biological, Gaithersburg, MD, cat. 114-055-101), at 800-fold the tested concentration and stored at -70 degrees C prior to their use. All drugs and investigational agents were tested over a range starting from a high concentration at or near the clinical Cmax and decreasing in half-log increments. If the clinical Cmax for an agent had not been determined, the highest concentration tested was 10 microM (Table 1).
Cell Culture. All cells were maintained in an incubator at 37 degrees C and 5% CO2 with 95% humidity. The PDC lines were cultured according to standard operating procedures established by the NCI PDMR (https://pdmr.cancer.gov). Briefly, all PDCs were thawed and cultured in Matrigel-coated flasks prepared with a working solution of 1X Ham's F-12 nutrient mix, without supplementation (Invitrogen, Waltham, MA, cat. 11765054), 100 U/mL penicillin-streptomycin (Invitrogen, cat. 15140122), and 2.5% Matrigel (Corning Inc., Corning, NY, cat. 354248) for the first three passages. All PDCs were cultured in complete DMEM/F-12 media containing advanced DMEM/F-12 (Invitrogen, cat. 12634028), 4.9% defined fetal bovine serum, heat inactivated (HyClone Laboratories Inc., Logan, UT, cat. SH30070.03HI), 389 ng/mL hydrocortisone (Sigma-Aldrich, cat. H4001), 9.7 ng/mL human EGF recombinant protein (Invitrogen, cat. PHG0313), 23.4 microg/mL adenine (Sigma-Aldrich, cat. A2786), 97.3 U/mL penicillin-streptomycin (Invitrogen, cat. 15140122), 1.9 mM L-glutamine (Invitrogen, cat. 25030081), and 9.7 microM Y-27632 dihydrochloride (Tocris Bioscience, Bristol, United Kingdom, cat. 1254). The PDCs were cultured in complete DMEM/F12 media without 10 microM Y-27632 dihydrochloride for at least two passages prior to the screen. The established cell lines NCI-H1341 and […] were cultured in DMEM/F-12, HEPES (Invitrogen, cat. 11330032), 5% defined fetal bovine serum (HyClone Laboratories Inc., cat. SH30070.03), ITS premix universal culture supplement [insulin (5 microg/mL), transferrin (5 microg/mL), and selenious acid (5 ng/mL)] […]

With CC(CO)NC(=O)c1cc(-c2ccc(Cl)cc2)nn(-c2cnn(C)c2)c1=O (configuration not stated) the viability, T/C (compound alone 0.316 µM) was 95.7 (2×), 98.1, 95.2, 89.4, 97.8, 89.6, 96.4, 90.9, 89.9, 87.1, 104, 113, 99, 93.1, 90, 118, 91.3, 109, 97.2, 102%, the viability, T/C (compound alone 3.16 µM) was 96.4, 90.7, 96.7, 115, 83.7, 101, 107, 95.6, 92.2, 102 (2×), 95.7, 91.5, 97, 103 (2×), 94.6, 92.5, 87.5% and the viability, T/C (compound alone 10 µM) was 100, 92.9, 106 (2×), 90.4, 94.3, 82.2, 99.8, 93.7 (2×), 102 (3×), 95.2, 120, 96.5, 103, 92.2, 89.5%.
COc1cc(Nc2ncc3c(n2)-c2ccc(Cl)cc2C(c2c(F)cccc2OC)=NC3)ccc1C(=O)O was tested, and the IC50 was < 31.6 nM (2×) and > 10 µM.
For Cc1cncc(-c2nc(NCCc3c[nH]c4ccccc34)c3ncn(C(C)C)c3n2)c1, the viability, T/C (compound alone 0.1 µM) was 98.4, 90, 96, 94.3, 109, 98.6, 106 (2×), 94.6, 102, 99.1, 95.9, 95.8, 103, 98.1, 101, 96.7, 91.5, 100, 81.2%, the viability, T/C (compound alone 0.316 µM) was 93.8, 94.5, 88.2, 118, 102, 99.5, 92.6, 96.3, 94.7, 100, 97.9, 95.1, 104, 88, 90, 87.3, 95.6, 116, 95.4, 103% and the viability, T/C (compound alone 1 µM) was 95, 88.9, 96.6, 91.3, 123, 94.5, 111 (2×), 108 (2×), 92.6, 105, 109, 93.4, 88.4, 97.2, 97.3, 106, 91.2, 102%. For the same molecule, the viability, T/C (compound alone 3.16 µM) was 101 (2×), 81.3, 95.1, 88.6, 95.4, 99, 74.6, 86.2, 97.2, 93.6, 85, 108, 86.5 (2×), 83, 98.7, 85.3, 89, 97.6%, the viability, T/C (compound alone 10 µM) was 46, 44.2, 45.2, 49, 84.2, 41.2, 32.5, 36.4, 40.8, 38.7, 59.3, 50.2, 58.4, 53.8, 61.1, 53.5, 55.5, 58.8, 52.6, 61.9% and the IC50 (run of 07/18/2022) was 9.14 µM, 8.38 µM, 8.92 µM, 9.8 µM, > 10 µM, 8.29 µM, 7.4 µM, 6.63 µM, 7.95 µM, 8.01 µM, 6.49 µM, 7.33 µM, 7.8 µM, 8.73 µM.
Cc1ccccc1N=Nc1ccc(NC(=O)c2ccnn2C)c(C)c1 was tested, and the viability, T/C (compound alone 3.16 µM) was 92.2, 92.6, 107, 88.2, 110, 93.8, 86.9, 103, 94.2, 94, 99.2, 92, 105, 114, 104, 99.8, 96.9, 92.8, 101, 96.1%.
With CC1COCCN1c1cc(-c2ccnn2C)c2ccnc(-c3ccn[nH]3)c2n1 (configuration not stated) the IC50 was 76.6 nM, 36 nM, 538 nM.
